Out of some 310,000 compounds screened, about 2,200 (0.71%) showed an effect of 50% or more. The effect is printed as a negative number. The list shows a part of the results.
molecular target: human ether-à-go-go-related gene (hERG) potassium channel (human, UniProt Q12809); test: primary screen, population patch clamp on CHO cells stably expressing hERG
Sequence (Q12809 whole entry, looked up): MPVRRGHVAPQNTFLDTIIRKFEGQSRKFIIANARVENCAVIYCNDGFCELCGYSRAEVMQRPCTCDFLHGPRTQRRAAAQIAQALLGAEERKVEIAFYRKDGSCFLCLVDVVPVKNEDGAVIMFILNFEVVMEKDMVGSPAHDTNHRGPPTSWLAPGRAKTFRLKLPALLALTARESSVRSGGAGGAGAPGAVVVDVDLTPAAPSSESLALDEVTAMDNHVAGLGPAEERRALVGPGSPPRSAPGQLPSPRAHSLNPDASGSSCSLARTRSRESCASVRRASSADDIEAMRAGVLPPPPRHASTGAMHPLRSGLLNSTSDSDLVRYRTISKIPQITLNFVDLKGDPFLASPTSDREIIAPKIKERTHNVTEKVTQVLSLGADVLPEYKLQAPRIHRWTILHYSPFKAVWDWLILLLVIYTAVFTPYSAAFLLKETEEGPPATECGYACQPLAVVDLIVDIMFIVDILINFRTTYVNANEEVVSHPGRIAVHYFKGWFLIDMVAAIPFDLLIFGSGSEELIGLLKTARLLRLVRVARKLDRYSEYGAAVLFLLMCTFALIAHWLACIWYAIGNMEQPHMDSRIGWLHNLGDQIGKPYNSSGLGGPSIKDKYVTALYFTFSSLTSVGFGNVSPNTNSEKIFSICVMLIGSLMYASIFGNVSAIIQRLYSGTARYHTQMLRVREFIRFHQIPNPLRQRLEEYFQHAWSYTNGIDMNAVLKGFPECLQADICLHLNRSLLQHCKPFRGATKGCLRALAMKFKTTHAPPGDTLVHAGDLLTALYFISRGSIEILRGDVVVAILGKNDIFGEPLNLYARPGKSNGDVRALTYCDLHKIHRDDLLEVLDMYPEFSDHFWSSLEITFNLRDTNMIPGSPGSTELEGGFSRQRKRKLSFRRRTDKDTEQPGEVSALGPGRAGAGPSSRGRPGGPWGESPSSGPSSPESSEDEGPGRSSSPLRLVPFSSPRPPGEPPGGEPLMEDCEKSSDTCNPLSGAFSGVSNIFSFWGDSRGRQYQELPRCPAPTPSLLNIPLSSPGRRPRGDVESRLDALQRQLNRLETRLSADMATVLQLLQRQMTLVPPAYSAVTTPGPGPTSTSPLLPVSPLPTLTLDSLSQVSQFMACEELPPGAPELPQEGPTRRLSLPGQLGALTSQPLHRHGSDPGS

SMILES | hERG current change (%, negative = inhibition) at 1uM [%]
O=C(OCC1OC(n2cnc3c(N(C(=O)c4ccccc4)C(=O)c4ccccc4)ncnc32)C(O)C1F)c1ccccc1 (stereo not shown) | -1.26
CC(=O)N1CCc2cc(Br)cc(S(=O)(=O)NCCCN3CCCC(C)C3)c21 (stereo not shown) | 8.52
CCN(CC)CCN(C(=O)c1ccc(C(=O)c2ccccc2)cc1)c1nc2ccc(OC)cc2s1.Cl | 3.62
Fc1cccc(Cl)c1-c1nnc2ccc3ccccc3n12 | 13.5
Cc1ccc(NC(=O)C(Nc2ccccc2)c2ccccc2)cc1 (stereo not shown) | 5.26
O=C(Oc1cccc2cccnc12)c1cccc(-n2cnnn2)c1 | 4.63
CCN(CC)c1ccc(C=O)c(OC)c1 | 3.69
CC(=O)COc1ccc2c(C)c(C)c(=O)oc2c1 | 9.03
CCN(CC(=O)NC1CCS(=O)(=O)C1)S(=O)(=O)c1c(C)c(C)cc(C)c1C (stereo not shown) | 7.13
Cc1onc(-c2ccccc2Cl)c1C(=O)Nc1ccc(F)c(F)c1 | 4.99
O=C(CN(Cc1cccs1)S(=O)(=O)c1ccc(S(=O)(=O)N2CCCCC2)cc1)Nc1ccccc1 | 17.7
Cc1ccc(SCC(=O)c2c(C)nc3ccccn23)cc1 | 26.7
CN(C)CCN(C(=O)c1ccco1)c1nc2cc3c(cc2s1)OCCO3.Cl | -3.4
COc1ccccc1N(CC(=O)N/N=C/c1c(O)ccc2ccccc12)S(C)(=O)=O | 17.5
C=CCSc1nc2c(c(=O)[nH]c(=O)n2C)n1C(C)C | 7.93
COc1cccc(/C=N/Nc2ncnc3scc(-c4ccccc4)c23)c1OC | 15
Cc1cccc(NC(=O)CSc2ccc3nnc(-c4cccnc4)n3n2)c1 | -2.62
COc1ccc(CNC(=O)COC(=O)CN2C(=O)COc3ccccc32)cc1 | -3.25
CCCn1c(N)c(C(=O)CSc2nc(N)cc(=O)[nH]2)c(=O)n(C)c1=O | 12.5
CC1(C)Cc2c(cnn2-c2ccccc2)C(NC(=O)CCc2ccc(=O)[nH]n2)C1 (stereo not shown) | 8.83
COc1cc(-c2cc[n+](C)cc2)ccc1O.[Br-] | 4.62
CC1CCN(S(=O)(=O)c2ccc3[nH]c(=O)[nH]c3c2)CC1 | 0.708

SMILES | hERG current change (%, negative = inhibition) at 1uM [%]
CCC(c1nnnn1C1CCCC1)N1CCN(c2cccc(OC)c2)CC1.Cl (stereo not shown) | 4.7
COCCCn1c(SCc2cc(=O)[nH]c3ccccc23)nnc1-c1ccco1 | 9.42
O=C(O)CCC(=O)Nc1ccc2c(c1)oc1ccccc12 | 2.28
O=C(NCC1CCCO1)c1cccc(Oc2ccc([N+](=O)[O-])cc2Cl)c1 (stereo not shown) | -21.7
Cc1cc(NC(=O)CCC(=O)N(c2cccc(F)c2)C(C(=O)NC2CCCC2)c2ccncc2)no1 (stereo not shown) | 2.81
Cn1nc(-c2ccccc2)cc1NC(=O)c1ccccc1 | 16.3
Cc1ccccc1[C@]1(C)ON(c2ccccc2C(F)(F)F)C1=O | 14.2
C=CCn1c(=O)c(C(=O)NCCc2ccc(Cl)cc2)c(O)c2cc(OC)c(OC)cc21 | 17
CCc1ncc(CN2CCC(C(=O)Nc3cccc(-c4cscn4)c3)CC2)cn1 | 3.38
CC(C)c1ccc(NC(=O)c2snc3ccc(Cl)cc23)cc1 | 11.6
CCOc1ccc(N(CC(=O)Nc2ccc(C)cc2)S(C)(=O)=O)cc1 | 9.55
O=C(Cc1ccc(NS(=O)(=O)c2ccc(F)cc2)cc1)NCc1cccnc1 | 12.4
COC(=O)CCCCCN1C(=O)NC(c2ccccc2)C(C(=O)OCc2ccccc2)=C1C (stereo not shown) | 16
O=C(c1ccc(S(=O)(=O)N2CCOCC2)cc1)N1CCN(c2cccc(Cl)c2)CC1 | -5.84
N#CC1(NC(=O)CSc2nc3ccccc3s2)CCCCC1 | 1.72
O=C(Nc1nnc(-c2ccc(Cl)cc2)o1)NC1CCCCC1 | 12
COc1cccc(N2C(=O)NC(=O)/C(=C/c3ccc4c5c(cccc35)CC4)C2=O)c1 | 6.33
COCC(C)NC(=O)C(C)Oc1ccccc1 (stereo not shown) | 8.59
Cc1ccc(NC(=O)c2ccc(NS(=O)(=O)c3c(C)noc3C)cc2)cc1C | 5.25
O=C(NC(=S)Nc1ccccc1Br)c1cccnc1 | 12.6
CCOc1ccc(Nc2cc(Nc3ccccc3OCC)nc(C=C(C#N)C#N)n2)cc1 | 14.5
CCOC(=O)C1CCN(C(=O)Nc2ccc(NC(=O)C3CCN(C(=O)OCC)CC3)cc2)CC1 | -24.8

SMILES | hERG current change (%, negative = inhibition) at 1uM [%]
COc1ccccc1Nc1nc(N)nc(CSc2nc(C)cc(C)n2)n1 | 7.95
CC(C)c1nc2ccccn2c1NC1CCCCC1 | 0.171
CC1CCC(NC(=O)C2(C)CCC(=O)N2Cc2cccnc2)CC1 (stereo not shown) | 13.1
Cc1cc(NC(=O)Cn2cc(C(F)(F)F)cc(Cl)c2=O)no1 | 3.77
COC(=O)[C@H](C)NC(=O)Nc1ccccc1F | 3.25
COC(=O)COc1cccc2c(=O)n(CC(=O)Nc3ccc4c(c3)OCCO4)ccc12 | 7.47
O=C(Nc1ccc2nn(-c3ccccc3)nc2c1)c1ccco1 | 7.8
Cc1ccc2c(c1)N(CC(=O)NC1CCC(C)CC1)C(=O)CO2 (stereo not shown) | 4.88
O=C(N=Nc1c(O)[nH]c2ccc(Cl)cc12)c1cc(-c2cccs2)nc2ccccc12 | 13
O=C(O)c1cnn(-c2ccccc2)c1C(F)(F)F | 11.1
O=C(CN1CCN(Cc2ccccc2Cl)C1=O)NCc1ccccn1 | 13.7
CCc1ccc(OCCCC(=O)NCc2ccco2)cc1 | 12.5
COc1ccc(-c2nc3ccccc3c(=O)[nH]2)cc1 | 10.4
CCOC(=O)NC(=O)C(=CNNc1ncc(C(F)(F)F)cc1Cl)C(=O)NC(=O)OCC | 13.9
C=C(C)C(=O)Nc1cccc(C2=NOC3(C2)C[C@@H](C(N)=O)N(C(=O)c2cc([N+](=O)[O-])cc([N+](=O)[O-])c2C)C3)c1 (stereo partly shown) | 11.8
O=C(Nc1ccccc1)C1C2/C=C\CCCCC21 (stereo not shown) | 11.4
COc1cc(OC)c(/C=N/NC(=O)c2ccc([N+](=O)[O-])cc2)cc1Br | 14.8
CC1=C(C#N)C(NC(=O)C(C)(C)C)(C(F)(F)F)C(=O)N1 (stereo not shown) | 6.23
COc1cccc(/C=N/NC(=O)C(=O)NCc2ccco2)c1O | 5.24
Cn1cccc1C1C(C#N)=C(N)OC2=C1C(=O)CCC2 (stereo not shown) | 15.3
COCCNC(=O)c1cn(C(C)c2ccccc2F)nn1 (stereo not shown) | 6.34
CC1CN(C(=O)c2cc(-c3ccncc3)nc3ccccc23)CC(C)O1 (stereo not shown) | -0.109

SMILES | hERG current change (%, negative = inhibition) at 1uM [%]
Cc1cc(=O)[nH]c(SCC(=O)NCC2CCCO2)n1 (stereo not shown) | 8.68
O=C1OC(OC(=O)c2ccccc2Br)C(N2CCOCC2)=C1Cl (stereo not shown) | 8.79
CCc1ccccc1OCC(=O)OCC(=O)N1CC(=O)Nc2ccccc21 | 11
COc1ccc(CC(=O)Nc2nncs2)cc1OC | 12.7
O=C(NC(Cc1ccccc1)C(=O)O)/C(=C\c1ccc(Br)cc1)NC(=O)c1ccc(Br)o1 (stereo not shown) | 5.37
CCN(CC)c1ccc(NC(=O)CN2CCN(S(=O)(=O)c3cc(Cl)ccc3OC)CC2)cc1 | 13
COc1ccc(NC(=O)COC(=O)CCc2ccccc2)c(OC)c1 | 17.2
COc1nc(NCc2cccnc2)nc(NC2CCCCC2)n1 | 4.6
CCOc1ccc(NC(=O)c2cccc(NC(=O)c3ccccc3)c2)cc1 | 7.35
O=C(NCC(c1cccnc1)N1CCN(c2ccccc2)CC1)OCc1ccccc1 (stereo not shown) | -6.26
Cc1cc(C(=O)CCC(=O)N2CCN(S(=O)(=O)c3cccs3)CC2)c(C)s1 | 7.51
CC1CC2(CCCCC2)Nc2c1ccc1ccccc21.Cl (stereo not shown) | 15.2
COCCn1c(SCC(=O)NC2CCCCC2)nc2c(c1=O)SCC2 | 11.5
CC(=O)ONC(=Nc1ccccc1)c1nonc1N | 14.7
CN(Cc1ccccc1)C(=O)C1CCC(CNS(=O)(=O)c2cccc3cccnc23)CC1 (stereo not shown) | -5.07
Cc1ccc(S(=O)(=O)N(CCC(=O)O)Cc2ccc(Cl)cc2)cc1 | 7.59
COc1ccc(-c2c(C)oc3c(CN4CCN(CCO)CC4)c(O)ccc3c2=O)cc1OC | 17.9
COc1cc(C2Nc3ccc4ncccc4c3C3=C2C(=O)CCC3)cc(OC)c1OC (stereo not shown) | -5.98
Nc1c(NCc2ccccc2)c2ccccc2oc1=O | 7.13
O=C(OCCN1C(=O)c2cccc3c(N4CCOCC4)ccc(c23)C1=O)c1ccccc1Cl | 9.19
Cc1cc(C(F)(F)F)nc(SCC(=O)Nc2nccs2)n1 | 10.9
Cc1ccc(C)c(NC2CCCCC2NS(=O)(=O)c2ccccc2)c1 (stereo not shown) | 17.3

Source: paper PMC4336329 (PLoS ONE, 2015)
